Data taken from US20210155673A1 (SANABIO, published 2021).

Biological target: IFNβ (UniProt P01574 22-187)
Assay: cell-based or functional assay

Sequence of IFNβ (P01574 22-187 limits assumed): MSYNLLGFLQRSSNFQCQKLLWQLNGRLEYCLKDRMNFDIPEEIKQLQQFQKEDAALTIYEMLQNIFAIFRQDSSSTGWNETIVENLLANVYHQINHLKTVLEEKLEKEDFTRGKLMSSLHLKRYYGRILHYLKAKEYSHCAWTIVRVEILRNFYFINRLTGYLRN

IC50, inhibition of IFNβ induced SEAP production in HEK-Blue α/β cells: 20 pM
B1: RSLV 601-604 soluble interferon receptor (heterodimer of RSLV-601 and RSLV-604) (Fc fusion)
chain 1: KNLKSPQKVEVDIIDDNFILRWNRSDESVGNVTFSFDYQKTGMDNWIKLSGCQNITSTKCNFSSLKLNVYEEIKLRIRAEKENTSSWYEVDSFTPFRKAQIGPPEVHLEAEDKAIVIHISPGTKDSVMWALDGLSFTYSLVIWKNSSGVEERIENIYSRHKIYKLSPETTYCLKVKAALLTSWKIGVYSPVHCIKTTVENELPPPENIEVSVQNQNYVLKWDYTYANMTFQVQWLHAFLKRNPGNHLYKWKQIPDCENVKTTQCVFPQNVFQKGIYLLRVQASDGNNTSFWSEEIKFDTEIQAFLLPPVFNIRSLSDSFHIYIGAPKQSGNTPVIQDYPLIYEIIFWENTSNAERKIIEKKTDVTVPNLKPLTVYCVKARAHTMDEKLNKSSVFSDAVCEKTKPGNTSKGGGGSGGGGSGGGGSGGGGS[here human IgG1 Fc with C220S P238S P331S T350V T366L K392L T394W (EU numbers) without letters]
chain 2: ISYDSPDYTDESCTFKISLRNFRSILSWELKNHSIVPTHYTLLYTIMSKPEDLKVVKNCANTTRSFCDLTDEWRSTHEAYVTVLEGFSGNTTLFSCSHNFWLAIDMSFEPPEFEIVGFTNHINVMVKFPSIVEEELQFDLSLVIEEQSEGIVKKHKPEIKGNMSGNFTYIIDKLIPNTNYCVSVYLEHSDEQAVIKSPLKCTLLPPGQESESAESAKGGGGSGGGGSGGGGSGGGGSEPKSSDKTHTCPPCPAPELLGGSSVFLFPPKPKDTLMISRTPEVTCVVVDVSHEDPEVKFNWYVDGVEVHNAKTKPREEQYNSTYRVVSVLTVLHQDWLNGKEYKCKVSNKALPASIEKTISKAKGQPREPQVYVYPPSRDELTKNQVSLTCLVKGFYPSDIAVEWESNGQPENNYKTTPPVLDSDGSFALVSKLTVDKSRWQQGNVFSCSVMHEALHNHYTQKSLSLSPGK
